# Measurements published in PubChem BioAssay AID1240 (Sanford-Burnham Center for Chemical Genomics, 2008).
# In all, about 50,000 compounds went through this assay and about 800 (1.6%) showed an effect of 50% or more. The list shows a part of the results.
# Biological target: Bcl-2-like protein 10 (Homo sapiens) (UniProt Q9HD36)
# Assay: Phenotype converters, Bcl-B/TR3 peptide binding displacement, primary biochemical FP (AID 1240);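 note: 0% = Bcl-B with tracer peptide and DMSO and 100% = tracer peptide lacking Bcl-B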
# Conditions: GST-Bcl-B / FITC-TR3 peptide fluorescence polarization; stronger effect = higher value; compound at 3.75 mg/L
# Chain of UniProt Q9HD36 (Q9HD36 whole entry, looked up): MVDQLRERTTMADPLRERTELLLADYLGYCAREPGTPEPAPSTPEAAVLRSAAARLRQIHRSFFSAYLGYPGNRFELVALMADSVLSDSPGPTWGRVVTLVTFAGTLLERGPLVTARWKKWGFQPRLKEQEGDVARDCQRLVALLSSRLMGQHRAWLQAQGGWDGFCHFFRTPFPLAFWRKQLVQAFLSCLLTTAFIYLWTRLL
row,Compound,displacement
1,CC(=O)Nc1ccccc1NC(=O)c1ccc(Cl)cc1,11.4%
2,COc1cc([N+](=O)[O-])ccc1NC(=O)c1ccc(I)cc1,-11.9%
3,O=C(O)C(Cc1c[nH]c2ccccc12)NS(=O)(=O)c1ccc([N+](=O)[O-])cc1 (stereo unspecified),5.5%
4,Nn1cnc2scc(-c3ccccc3)c2c1=O,1.9%
5,Cc1onc(-c2c(F)cccc2Cl)c1C(=O)NCc1ccco1,-8%
6,CCCCOC(=O)COc1ccc2c3c(c(=O)oc2c1C)CCC3,9.1%
7,COc1cc(CN2CCN(Cc3cccc([N+](=O)[O-])c3)CC2)c([N+](=O)[O-])cc1OC,-0.3%
8,COc1cc(OC)c(/C=N/n2c(C)nnc2C)c(OC)c1,2.8%
9,CCCC1=NN2C(=N)/C(=C/c3ccc(-c4ccccc4C(=O)OC)o3)C(=O)N=C2S1,-37%
10,COC(C)(C)CNS(=O)(=O)c1ccc(Cl)cc1,2.2%
11,CCOc1cc(C=O)ccc1OCc1ccc(Cl)c(Cl)c1,-5.6%
12,O=C(O)C1(P(=O)(c2ccc(Cl)cc2)c2ccc(Cl)cc2)CCCC1,-10.4%
13,CCOc1cc(/C=C2\SC(=S)N(CC(C)C)C2=O)ccc1O,15.9%
14,CN1C(=O)/C(=N/OC(=O)c2ccc(Cl)cc2)c2ccccc21,0.7%
15,O=C(N/N=C\c1cc(Cl)cc([N+](=O)[O-])c1O)c1ccc(Br)cc1,11.8%
16,C/C(=N\NC(=O)c1n[nH]c2c1CCCC2)c1ccc([N+](=O)[O-])cc1,-6.9%
17,Cc1ccc(N2C(=O)C=CC2=O)c(Br)c1,8.5%
18,CC(C)CCNC(=O)c1ccc(Cl)c([N+](=O)[O-])c1,12.8%
19,OCc1nc2ccccc2n1/N=C/c1ccccc1,1.5%
20,O=C(Nc1ccc(-c2nnc(-c3ccccc3)o2)cc1)c1cccs1,15.3%
21,CC1=C(C(=O)Nc2ccc(Br)cc2)C(c2ccc(C)cc2)NC(=S)N1 (stereo unspecified),6.5%
22,COC(=O)C1=C(C)NC(=O)NC1c1ccc(SC)cc1 (stereo unspecified),-14.9%
23,CC(C)(CO)NCC(=O)NCCNc1ccc([N+](=O)[O-])cc1Cl,9.2%

row,Compound,displacement
1,COc1ccc(CNc2nccs2)cc1,7.8%
2,O=C(COc1ccccc1)Nc1ccncc1,14%
3,Cc1ccc(N2C(=O)C3C4C=CC(CC4)C3C2=O)c([N+](=O)[O-])c1 (stereo unspecified),4.7%
4,CCN1C(=O)c2cccc3c(NC(=O)c4ccc(Oc5ccccc5)cc4)ccc1c23,-14.2%
5,N/C(=N/OC(=O)c1ccc(Br)cc1)c1nonc1N,8.4%
6,CCN(C=NC1=NN(c2ccccc2)CC1)CC,10%
7,COc1ccc(C(=O)Nc2ccccc2C)cc1OC,1.8%
8,O=C(Cc1nnc(NC(=O)Nc2cccc(Cl)c2)s1)Nc1ccccc1,1.3%
9,COc1cc(/C=N/NC(=O)Cc2n[nH]c(=O)[nH]c2=O)cc(Br)c1O,6.6%
10,COc1ccc(Br)cc1C(=O)Nc1cccc(NC(=O)c2ccccc2C)c1,-3.3%
11,Cc1ccc(-c2nc3cc(Cl)cc(Cl)c3o2)cc1NC(=O)COc1ccc([N+](=O)[O-])cc1,2.6%
12,Oc1c(Cl)cc(Cl)cc1/C=N/Nc1nnc(-c2ccccc2)c(-c2ccccc2)n1,0.5%
13,Cc1ccc(-n2nc3ccc(NC(=O)c4cccs4)cc3n2)cc1Cl,12.3%
14,COc1ccc(OC)c(S(=O)(=O)N2CCN(c3ccccc3)CC2)c1,-7.4%
15,CCN(CC)Cc1c(O)ccc2c(=O)c(Oc3ccccc3Br)c(C(F)(F)F)oc12,1.9%
16,Cc1cccc(NC(=O)C(=O)NCCCn2ccnc2)c1,3.3%
17,Cc1ccc(COc2c(Br)cc(/C=C(\C#N)c3nn(-c4ccccc4)c(N)c3C#N)cc2Br)cc1,11.2%
18,O=C(N/C(=C/c1cccs1)C(=O)N1CCCCCC1)c1ccccc1,16.2%
19,O=C(Nc1ccc(-c2nc3ccccc3s2)cc1)c1ccc(Cl)c([N+](=O)[O-])c1,14.9%
20,CC1(C)CCCC2=C1CC(C(=O)O)C(C(=O)O)C2 (stereo unspecified),12.2%
21,CCN(CC)c1ccc(NC(=O)C(c2ccccc2)c2ccccc2)cc1,8.2%
22,CCC(C(=O)Nc1cc(OC)c(Cl)cc1OC)c1ccccc1 (stereo unspecified),2.4%
23,CCN(CC)c1ccc(C2NC(=O)NC(C)=C2C(=O)OCCOc2ccccc2)cc1 (stereo unspecified),-0.8%

row,Compound,displacement
1,Cc1n(N)c2ccccc2[n+]1C,-1.6%
2,O=S(=O)(c1ccccc1)N1CCN(Cc2ccc3c(c2)OCO3)CC1,-8.5%
3,COc1ccccc1NC(=O)N1CCCc2ccccc21,4.5%
4,CCCOc1ccc(C(=O)Nc2c(C)cc(Br)cc2C)cc1,12.4%
5,COc1ccc(C(CC(=O)c2ccccc2)S(=O)(=O)c2ccc(C)cc2)cc1 (stereo unspecified),13.7%
6,CCOc1cc2oc(=O)cc(C)c2cc1CC,5.9%
7,CCOC(=O)NCc1ccc(Cl)cc1,1.2%
8,CCc1ccc(OCC(=O)Nc2cccc(S(N)(=O)=O)c2)cc1,-2.2%
9,O=C1CCCC(O)=C1C(C1=C(O)CCCC1=O)c1ccc(Cl)cc1,-12%
10,COc1cccc(C(=O)Nc2ccc3oc(-c4cccc(OC)c4)nc3c2)c1,-9.2%
11,O=C(/C=C/c1ccco1)Nc1ccc(S(=O)(=O)Nc2nccs2)cc1,0.3%
12,O=c1cc(N2CCOCC2)c2ccccc2o1,4.8%
13,Cc1c(C=C(C#N)C#N)c(C)c([N+](=O)[O-])c(C)c1[N+](=O)[O-],10.5%
14,Cc1c(-n2c(O)c(C3=c4cc([N+](=O)[O-])ccc4=NC3=O)sc2=S)c(=O)n(-c2ccccc2)n1C,-4%
15,Cc1ccc(OCC(=O)NC2C3CC4CC(C3)CC2C4)c(Br)c1 (stereo unspecified),3.7%
16,N#Cc1ccc2c(c1)nc1c3cccc4cccc(c(=O)n21)c43,22.2%
17,O=C(CC1Nc2ccccc2NC1=O)Nc1ccc(Br)cc1 (stereo unspecified),-5.1%
18,NNc1cc(-c2ccccc2O)nc(-c2ccccc2)n1,-14.9%
19,O=C(Nc1cccc(-c2nc3ccccc3[nH]2)c1)c1cccs1,-5.1%
20,N/C(=N\OC(=O)c1ccccc1F)c1ccc(Br)cc1,14.3%
21,O=c1/c(=C/c2cccc(OCCOc3ccc(Br)cc3)c2)sc2nc3ccccc3n12,6.6%
22,CCOC(=O)c1oc2c(c1C)C(Cl)=C(C=O)CC2,15.1%
23,COc1ccccc1CN1CCN(S(=O)(=O)c2ccc(Cl)cc2)CC1,-9.1%

row,Compound,displacement
1,O=C(/C=C/c1cccc(C(F)(F)F)c1)Nc1cccc([N+](=O)[O-])c1,20.4%
2,COc1ccc(C(=O)N/C(=C\c2ccc(-c3cccc([N+](=O)[O-])c3)o2)C(=O)NCCN2CCOCC2)cc1,9.8%
3,CSCCC(NC(=O)c1ccc(C)o1)C(=O)O (stereo unspecified),10.7%
4,CCC/C(O)=C1\C(=O)CC(C)(C)CC1=NCCO,1.4%
5,NC1=NC(=O)/C(=C/c2cccc(OS(=O)(=O)c3ccc([N+](=O)[O-])cc3)c2)S1,1.1%
6,O=C(CN1C(=O)c2ccccc2C1=O)Nc1ccccc1C(=O)N1CCOCC1,-6.2%
7,O=[N+]([O-])c1ccc(N2CCOCC2)cc1Sc1cccc2cccnc12,8.4%
8,O=C(/C=C/c1ccc(-c2cc(Cl)ccc2Cl)o1)c1ccc(F)cc1,-25.9%
9,Cc1cc(C)nc(SC(C)C(=O)N/N=C/c2ccccc2Cl)n1 (stereo unspecified),3.2%
10,Cc1ccc(Cl)c(OCCCCN2CCC(C)CC2)c1,-4.6%
11,CCOC(=O)c1cnc2cc(-c3cccc(Cl)c3)[nH]n2c1=O,-7.6%
12,Cc1ccc(N(CC(=O)Nc2c(C)n(C)n(-c3ccccc3)c2=O)S(C)(=O)=O)cc1,-2.2%
13,Fc1ccccc1OCCCn1ccnc1,15.9%
14,CC(NC(=O)C(=O)NCCN1CCN(C(=O)c2ccco2)CC1)c1ccccc1 (stereo unspecified),-8.5%
15,Cc1ccc(-c2n[nH]c(=S)c3ccccc23)cc1C,7.3%
16,COc1ccc(NC(=O)C2CC(O)CN2C(=O)OCc2ccccc2)cc1 (stereo unspecified),2.2%
17,COc1ccc(S(=O)(=O)N(CC(=O)NCCc2ccc(OC)c(OC)c2)Cc2ccccc2)cc1,0.4%
18,COc1ccc(NCc2cccnc2)cc1,16.6%
19,Cc1ccc(/C=C2\SC(=S)N(CCC(=O)Nc3nccs3)C2=O)cc1,19.4%
20,O=C(Nc1nc(-c2ccc(Cl)cc2)cs1)C1CC1,4.4%
21,CC1CCN(c2ccc([N+](=O)[O-])c(SCCO)c2)CC1,13.2%
22,COc1ccc(/C=N/n2cnnc2)cc1Cn1nc(C)c([N+](=O)[O-])c1C,12.3%
23,Cc1ccc(N2C(=O)NC(=O)/C(=C\c3ccc(I)o3)C2=O)cc1C,-8.1%

row,Compound,displacement
1,CCOc1ccc(C(=O)Nc2ccc(I)cc2Cl)cc1,2.8%
2,COc1ccc(-n2c(=O)c3c4c(sc3n3c(SCC(N)=O)nnc23)COC(C)(C)C4)cc1,1.9%
3,CC(=O)N(C)c1ccc(NC(=O)c2cccs2)cc1,-7%
4,CCc1ccc(NC(=O)COc2cc(C)c(Cl)c(C)c2)cc1,30.2%
5,CCOC(=O)C1=C(C)N=c2s/c(=C\c3ccc(F)cc3)c(=O)n2C1c1cccc(OC)c1 (stereo unspecified),16.8%
6,Clc1cccc(C2Nc3cccc4cccc(c34)N2)c1,19.7%
7,Cc1nc2cc(-c3cccc(F)c3)nn2c(C)c1Cl,8.5%
8,Cc1ccc2nc(-c3ccc(NC(=O)COc4ccc([N+](=O)[O-])cc4)cc3)oc2c1,-2.6%
9,COc1ccccc1/C=C/C(=O)c1ccc(-c2ccccc2)cc1,8.7%
10,COc1ccc(S(=O)(=O)Nc2ncccc2O)cc1,4.4%
11,CCOc1ccc(NC(=S)NC(NC(=O)c2cccc(OC)c2)C(Cl)(Cl)Cl)cc1 (stereo unspecified),-5.8%
12,Cc1ccc(C(=O)Nc2ccc(I)cc2C(=O)O)o1,6.1%
13,COc1cccc(OCCNC(=O)C(c2ccccc2)c2ccccc2)c1,-14.1%
14,Fc1ccc(-c2nnc(-c3ccc(F)cc3)o2)cc1,-1%
15,CCOc1cccc(C(=O)Nc2ccc3nn(-c4ccc(F)cc4)nc3c2)c1,10.1%
16,COc1ccc(O/C(=N\S(=O)(=O)c2ccccc2)c2ccccc2)cc1,7%
17,N/C(=N\OC(=O)CCc1ccccc1)c1ccc(Br)cc1,3%
18,COc1ccc(CCNC(=O)/C=C\c2ccccc2)cc1OC,6.7%
19,O=C1CC(c2ccccc2)CC2=C1C(c1ccc(OCc3ccccc3)cc1)Nc1ccccc1N2 (stereo unspecified),5.3%
